Measured values from patent publication US20140155420A1, “INHIBITORS OF EYA2” (The Regents of the University of Colorado, a body corporate, priority 2011, published 2014).

Molecular target: T1, Eya2 ED (Homo sapiens, UniProt O00167)
T1 sequence (O00167 253-538): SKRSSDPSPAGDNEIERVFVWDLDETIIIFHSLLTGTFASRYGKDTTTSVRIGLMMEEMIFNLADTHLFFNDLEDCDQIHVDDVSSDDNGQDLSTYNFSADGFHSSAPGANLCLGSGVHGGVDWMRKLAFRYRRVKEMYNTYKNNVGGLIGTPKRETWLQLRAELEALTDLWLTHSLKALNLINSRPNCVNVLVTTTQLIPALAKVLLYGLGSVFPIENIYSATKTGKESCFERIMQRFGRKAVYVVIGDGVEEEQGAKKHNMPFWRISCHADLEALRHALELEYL
Details: read-out: IC50, inhibition of Eya2 ED phosphatase activity; common phosphatase inhibitors, OMFP substrate

Row | IC50 | SMILES
1 | 1.8 mM | [Na+].[Na+].[Na+].[O]=[V]([O-])([O-])[O-] [Na3VO4]
2 | 6.6 mM | [F-].[Na+] [NaF]
